In the supplement of paper PMC4967469:

Tests used:
Experiment in all cases: Viability of human cancer cell lines after 72 h of drug (GDSC screen)
[1] = compound: CC(=O)Nc1nc(C)c(-c2ccc(Cl)c(S(=O)(=O)NCCO)c2)s1 [PIK-93]; settings: top dose 20 µM
Protocol: (§1)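 Human cancer cell lines in 384-well plates, medium with 10% serum, drug for 72 h over a 256-fold dose range (nine 2-fold or five 4-fold steps up to the top dose). Adherent lines were fixed and stained with the nucleic acid dye Syto60, suspension lines read with resazurin; signal relative to control wells, capped at 0 and 100%. One two-parameter sigmoid per drug and line, fitted in a mixed model over all curves with the slope shared within a line.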

[2] = compound: CC1(C)CCC(c2ccc(Cl)cc2)=C(CN2CCN(c3ccc(C(=O)NS(=O)(=O)c4ccc(N[C@H](CCN5CCOCC5)CSc5ccccc5)c(S(=O)(=O)C(F)(F)F)c4)cc3)CC2)C1 [ABT-263]; settings: top dose 2 µM; top dose inferred
Protocol: as §1

[3] = compound: COc1cc(/C=C/C(=O)N2CCC=CC2=O)cc(OC)c1OC [piperlongumine]; settings: top dose 10 µM
Protocol: as §1

[4] = compound: COc1cc2ncn(-c3cc(OCc4ccccc4C(F)(F)F)c(C(N)=O)s3)c2cc1OC [GW843682X]; settings: top dose 0.256 µM
Protocol: as §1

[5] = compound: Cn1cc(/C=C2\C(=O)Nc3cccnc32)c2ccccc21 [GW 441756]; settings: top dose 2 µM; top dose inferred
Protocol: as §1

[6] = compound: O=C(/C=C/c1ccccc1)NC(NC(=S)Nc1cccc2cccnc12)C(Cl)(Cl)Cl [Salubrinal]; settings: top dose 16 µM; top dose inferred
Protocol: as §1

Row | Cell Line | AUC [1] | IC50 [1] [nM] | AUC [2] | IC50 [2] [nM] | AUC [3] | IC50 [3] [nM] | AUC [4] | IC50 [4] [nM] | AUC [5] | IC50 [5] [nM] | AUC [6] | IC50 [6] [nM]
1 | RF-48 (stomach, adherent) | 0.298 | 313 | 0.975 | > 2000 | 0.963 | > 10000 | 0.694 | 60.3 | 0.976 | > 2000 | 0.931 | > 16000
2 | UACC-257 (melanoma, adherent) | 0.817 | 14800 | 0.969 | > 2000 | 0.731 | 3400 | 0.777 | 129 | 0.951 | > 2000 | 0.892 | > 16000
3 | EW-11 (Ewing sarcoma, adherent) | 0.617 | 2880 | 0.832 | 1840 | 0.808 | 7110 | 0.981 | > 256 | 0.966 | > 2000 | 0.951 | > 16000
4 | P32-ISH (Burkitt lymphoma, suspension) | 0.558 | 1730 | 0.993 | > 2000 | 0.72 | 2170 | 0.408 | 9.55 | 0.995 | > 2000 | 0.884 | 10000
5 | BL-41 (Burkitt lymphoma, suspension) | 0.459 | 990 | 0.994 | > 2000 | 0.76 | 2780 | 0.415 | 9.91 | 0.994 | > 2000 | 0.862 | 8720
6 | ALL-SIL (T-cell leukaemia, suspension) | 0.533 | 1520 | 0.405 | 71.3 | 0.777 | 3450 | 0.42 | 10 | 0.989 | > 2000 | 0.796 | 6350
7 | SK-MEL-2 (melanoma, adherent) | 0.89 | > 20000 | 0.908 | > 2000 | 0.731 | 2940 | 0.904 | > 256 | 0.922 | > 2000 | 0.973 | > 16000
8 | NCI-H1304 (small cell lung carcinoma, suspension) | 0.886 | > 20000 | 0.666 | 377 | 0.879 | > 10000 | 0.653 | 44 | 0.966 | > 2000 | 0.988 | > 16000
9 | HDLM-2 (Hodgkin lymphoma, suspension) | 0.979 | > 20000 | 0.287 | 31.5 | 0.835 | 6410 | 0.714 | 63.6 | 0.904 | > 2000 | 0.769 | 5970
10 | 8-MG-BA (glioma, adherent) | 0.872 | 17100 | 0.988 | > 2000 | 0.683 | 1950 | 0.539 | 20.3 | 0.987 | > 2000 | 0.835 | 9560

IC50 is the fitted dose that halves viability relative to control wells, and lower means more sensitive; fits outside the tested doses are given as limits. AUC sums up the same curve from the lowest dose to the 256-fold higher top dose; it is 1 without any effect and falls as sensitivity rises. For part of these data: The top dose, if marked as inferred, comes from the curve model; the source does not state it.
